Read-outs that look alike come from different tables or passages of the source.
Experiments:
[1] = system: PC-3 prostate cancer cell line; assay: Cell growth inhibition (SRB), extended panel; assay type: cell-based; details: read-out: GI50 Range
[2] = system: HCT-15 colon cancer cell line; assay: Cell growth inhibition (SRB), extended panel; assay type: cell-based; details: Homo sapiens, HCT-15, read-out: GI50 Range
[3] = system: BT474 breast cancer cell line; assay: Cell growth inhibition (SRB), extended panel; assay type: cell-based; details: Homo sapiens, BT-474, read-out: GI50 Range
[4] = system: SKBR3 breast cancer cell line; assay: Cell growth inhibition (SRB), extended panel; assay type: cell-based; details: Homo sapiens, SK-BR-3, read-out: GI50 Range
[5] = system: HCT116+/+ colon cancer cell line; assay: Cell growth inhibition (SRB), extended panel; assay type: cell-based; details: Homo sapiens, HCT-116, read-out: GI50 Range
[6] = system: HS578T breast cancer cell line; assay: Cell growth inhibition (SRB), extended panel; assay type: cell-based; details: Homo sapiens, Hs-578T, read-out: GI50 Range
[7] = system: SW 626 ovarian cancer cell line; assay: Cell growth inhibition (SRB), extended panel; assay type: cell-based; details: Homo sapiens, SW626, read-out: GI50 Range
[8] = system: HCT116+/− colon cancer cell line; assay: Cell growth inhibition (SRB), extended panel; assay type: cell-based; details: Homo sapiens, HCT-116, read-out: GI50 Range
[9] = system: SK-OV-3 ovarian cancer cell line; assay: Cell growth inhibition (SRB), extended panel; assay type: cell-based; details: Homo sapiens, SK-OV-3, read-out: GI50 Range
[10] = system: T47 D breast cancer cell line; assay: Cell growth inhibition (SRB), extended panel; assay type: cell-based; details: Homo sapiens, T47D, read-out: GI50 Range
[11] = system: HCC1954 basal breast cancer cell line; assay type: cell-based; details: Homo sapiens, HCC1954 basal breast cancer cell line, SRB assay after 5 days culture, read-out: Cell Line GI50 Range HCC-1954
[12] = system: SW620 colon cancer cells; assay type: cell-based; details: Homo sapiens, 120 h; SW-620 colon cancer cell line; SRB assay after 5 days culture; read-out: Cell Line GI50 Range SW-620
[13] = system: MDA-MB-468 basal breast cancer cell line; assay type: cell-based; details: Homo sapiens, 120 h; MDA-MB-468 basal breast cancer cell line; SRB assay after 5 days culture; read-out: Cell Line GI50 Range MDA-MB-468
[14] = system: MCF-7 luminal breast cancer cell line; assay type: cell-based; details: Homo sapiens, MCF7, 120 h; MCF-7 luminal breast cancer cell line; SRB assay after 5 days culture; read-out: Cell Line GI50 Range MCF-7
[15] = system: A549 lung cancer cells; assay type: cell-based; details: Homo sapiens, 120 h; A549 lung cancer cell line; SRB assay after 5 days culture; read-out: Cell Line GI50 Range A-549
[16] = system: human mammary epithelial primary cells (HMEC); details: 120 h, read-out: Cell Line GI50 Range HMEC
[17] = system: 184A1 immortalized breast cell line; assay: Cell growth inhibition (SRB), extended panel; assay type: cell-based; details: 184A1, read-out: GI50 Range

Row | Structure (SMILES) | GI50 ([11]; 120 h) | GI50 [12] | GI50 [13] | GI50 [14] | GI50 [15] | further results
1 | COc1ccc2c(c1)[C@]1(C[C@H]1c1ccc3c(-c4ccc(N5CCN(C)CC5)nc4)n[nH]c3c1)C(=O)N2 (racemic) [Example A13, (1R*,2S*)-5′-Methoxy-2-(3-(6-(4-methylpiperazin-1-yl)pyridin-3-yl)-1H-indazol-6-yl)spiro[cyclopropane-1,3′-indolin]-2′-one] | – | – | – | – | – | GI50 [1]: < 50 µM; GI50 [2]: < 50 µM; GI50 [3]: < 50 µM; GI50 [4]: < 50 µM; GI50 [5]: < 50 µM; GI50 [6]: < 50 µM; GI50 [7]: < 50 µM; GI50 [8]: < 50 µM; GI50 [9]: < 50 µM; GI50 [10]: < 50 µM
2 | CN(C)Cc1ccc(/C=C/c2n[nH]c3cc(C4C[C@@]45C(=O)N(CC(N)=O)c4ccccc45)ccc23)cc1 (mixture of isomers) [Example A160, 2-((1R*,2S*)-(E)-2-(3-(4-((dimethylamino)methyl)styryl)-1H-indazol-6-yl)-2′-oxospiro[cyclopropane-1,3′-indoline]-1′-yl)acetamide 2,2,2-trifluoroacetate] | < 0.1 µM | < 0.1 µM | < 0.1 µM | 1 to 10 µM | < 0.1 µM | GI50 [16]: > 10 µM
3 | CN(C)Cc1ccc(/C=C/c2n[nH]c3cc([C@@H]4C[C@@]45C(=O)Nc4ccccc45)ccc23)cc1 (relative stereo) [Example A23, (1R*,2S*)-(E)-2-(3-(4-((dimethylamino)methyl)styryl)-1H-indazol-6-yl)spiro[cyclopropane-1,3′-indolin]-2′-one 2,2,2-trifluoroacetate] | – | – | – | – | – | GI50 [1]: < 50 µM; GI50 [2]: < 50 µM; GI50 [3]: < 50 µM; GI50 [4]: < 50 µM; GI50 [5]: < 50 µM; GI50 [8]: < 50 µM; GI50 [9]: < 50 µM; GI50 [17]: < 50 µM
4 | O=C1Nc2ccccc2[C@]12C[C@H]2c1ccc2c(-c3ccc(CN4CCOCC4)cc3)n[nH]c2c1 (relative stereo) [Example A154, (1R*,2S*)-2-(3-(4-(morpholinomethyl)phenyl)-1H-indazol-6-yl)spiro [cyclopropane-1,3′-indolin]-2′-one 2,2,2-trifluoroacetate] | > 10 µM | > 10 µM | 1 to 10 µM | 1 to 10 µM | 1 to 10 µM | –
5 | CN1CCN(c2ccc(/C=C/c3n[nH]c4cc([C@@H]5C[C@@]56C(=O)Nc5ccccc56)ccc34)cn2)CC1 (relative stereo) [Example A157, (1R*,2S*)-2-(3-((E)-2-(6-(4-methylpiperazin-1-yl)pyridin-3-yl)vinyl)-1H-indazol-6-yl)spiro[cyclopropane-1,3′-indolin]-2′-one bis-2,2,2-trifluoroacetate] | 1 to 10 µM | 0.1 to 1 µM | < 0.1 µM | 1 to 10 µM | < 0.1 µM | –
6 | Cc1cc(/C=C/c2n[nH]c3cc([C@@H]4C[C@@]45C(=O)Nc4ccccc45)ccc23)ccn1 (relative stereo) [Example A161, (1R*,2S*)-2-(3-((E)-2-(2-methylpyridin-4-yl)vinyl)-1H-indazol-6-yl) spiro[cyclopropane-1,3′-indolin]-2′-one] | 1 to 10 µM | 0.1 to 1 µM | 0.1 to 1 µM | 1 to 10 µM | 0.1 to 1 µM | –
7 | COc1ccc2c(c1)[C@]1(C[C@H]1c1ccc3c(/C=C/c4ccc(N5CCNCC5)nc4)n[nH]c3c1)C(=O)N2 (relative stereo) [Example A163, (1R*,2S*)-5′-methoxy-2-(3-((E)-2-(6-(piperazin-1-yl)pyridin-3-yl)vinyl)-1H-indazol-6-yl)spiro[cyclopropane-1,3′-indolin]-2′-one 2,2,2-trifluoroacetate] | – | < 0.1 µM | < 0.1 µM | < 0.1 µM | < 0.1 µM | GI50 ([11]; HCC1954, 120 h): 1 to 10 µM
8 | CN(C)Cc1ccc(/C=C/c2n[nH]c3cc([C@@H]4C[C@@]45C(=O)Nc4ncccc45)ccc23)cc1 (relative stereo) [Example A172, (1R*,2S*)-(E)-2-(3-(4-((dimethylamino)methyl)styryl)-1H-indazol-6-yl) spiro[cyclopropane-1,3′-pyrrolo[2,3-b]pyridin]-2′(1′H)-one 2,2,2-trifluoroacetate] | – | < 0.1 µM | < 0.1 µM | 0.1 to 1 µM | < 0.1 µM | GI50 ([11]; HCC1954, 120 h): 1 to 10 µM
9 | Cc1ccc2c(c1)[C@]1(C[C@H]1c1ccc3c(-c4ccc(N5CCN(C)CC5)cc4)n[nH]c3c1)C(=O)N2 (relative stereo) [Example A173, (1R*,2S*)-5′-methyl-2-(3-(4-(4-methylpiperazin-1-yl)phenyl)-1H-indazol-6-yl)spiro[cyclopropane-1,3′-indolin]-2′-one 2,2,2-trifluoroacetate] | 0.1 to 1 µM | 0.1 to 1 µM | 0.1 to 1 µM | 0.1 to 1 µM | 0.1 to 1 µM | –
10 | O=C1Nc2ccc(F)cc2[C@]12C[C@H]2c1ccc2c(/C=C/c3ccc(N4CCOCC4)nc3)n[nH]c2c1 (relative stereo) [Example A207, (1R*,2S*)-5′-fluoro-2-(3-((E)-2-(6-morpholinopyridin-3-yl)vinyl)-1H-indazol-6-yl)spiro[cyclopropane-1,3′-indolin]-2′-one 2,2,2-trifluoroacetate] | – | < 0.1 µM | 0.1 to 1 µM | 0.1 to 1 µM | < 0.1 µM | GI50 ([11]; HCC1954, 120 h): 1 to 10 µM
11 | COc1ccc2c(c1)[C@]1(CC1c1ccc3c(/C=C/c4cc(F)c(CN(C)C)c(F)c4)n[nH]c3c1)C(=O)N2 (stereo in doubt) [Example A215, (1R*,2S*)-(E)-2-(3-(4-((dimethylamino)methyl)-3,5-difluorostyryl)-1H-indazol-6-yl)-5′-methoxyspiro[cyclopropane-1,3′-indolin]-2′-one 2,2,2-trifluoro acetate] | < 0.1 µM | < 0.1 µM | < 0.1 µM | < 0.1 µM | < 0.1 µM | –
